# Measurements taken from the RNAGym collection of RNA variant scans (doi:10.1073/pnas.2313332121).
# Variants at the floor of the assay are shown more often than the library holds them.
# B1: TPR 5TU (parent)
# chain: GGAUCUUCUCGAUCUAACAAAAAAGACAAAUCUGCCACAAAGCUUGAGAGCAUCUUCGGAUGCAGAGGCGGCAGCCUUCGGUGGCGCGAUAGCGCCAACGUUCUCAACUAUGACACGCAAAACGCGUGCUCCGUUGAAUGGAGUUUAUCAUG
# Variants of: B1
# Assay: polymerase ribozyme fitness, log enrichment relative to wild type (log ratio); higher = more active; in vitro selection for triplet polymerase activity
# Method in brief: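 Both subunits of a heterodimeric triplet polymerase ribozyme were given their own mutant library, built by PCR and transcribed. Each library was annealed with a biotinylated primer, the partner subunit and triplets, incubated frozen at −7 °C, and its extended constructs gel-excised, captured on streptavidin beads and amplified by RT-PCR, all in one round done in triplicate. Fitness is the logarithm of genotype enrichment relative to wild-type enrichment, with replicates averaged by inverse-variance weighting. That logarithm is base 2, and Illumina-sequenced genotypes needed ≥10 input reads and ≥1 read per output.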
row,Variant,polymerase ribozyme fitness (log ratio)
1,U6C A73U G84A G100U G124A C125G U145G,≤ -4.2
2,U6C C8U A19G C27A U31C C75G G86C A122G C149U,≤ -4.2
3,U6C C10G,-3.97
4,U6C C10U A20C A122C,≤ -4.2
5,U6C C14G C96A U135G U144G,≤ -4.2
6,U6C C14G G58C A60G G88A U102G,≤ -4.2
7,U6C C14U U44A G68U G92U A98G C99G,≤ -4.2
8,U6C C35A C69A C76U G86A U101C,≤ -4.2
9,U6C C35U G80U G81C C93G,≤ -4.2
10,U6C C36A U61G C93A C95G G117U G140C,≤ -4.2
11,U6C C36U C96U A98C U111G A122G C129U G141U,≤ -4.2
12,U6C C54U G67C G94C U111A C129G,≤ -4.2
13,U6C C57U C95A C108A U139A,≤ -4.2
14,U6C C87A,≤ -4.2
15,U6C C93G,-3.54
16,U6C G11C A16C G58C A142C,-3.7
17,U6C G42A A73G C93U G128U A147G G152U,≤ -4.2
18,U6C G50C A66G C87G,≤ -4.2
19,U6C G58C A73G C93G G124U U139G U148G,≤ -4.2
20,U6C G94A C105U U127A,≤ -4.2
21,U6C U9A A30U A49U C85U U146C,≤ -4.2
22,U6C U9C A17G G74U G80C C95U C129A,≤ -4.2
23,U6C U31C C57A C96G,-1.1
24,U6C U31G C36A C69U A89G A121U,≤ -4.2

row,Variant,polymerase ribozyme fitness (log ratio)
1,U6C U33G U56C G81C C95U,≤ -4.2
2,U6C U45A C69U C75G C96A,≤ -4.2
3,U6C U90C C93G A97U U144C,≤ -4.2
4,U6G A12U A23G C38A G83U U90G C95A,≤ -4.2
5,U6G A12U A28C A40C G94C,≤ -4.2
6,U6G A16U A30U A41U G71U G94C U139C,≤ -4.2
7,U6G A17G A22G A47U G50A A60U G86C C125G A137C,≤ -4.2
8,U6G A19G C54A C79U C93A A113U U127G,≤ -4.2
9,U6G A20U A41U U44A U55G G83A G88U A98U A121G U145A,≤ -4.2
10,U6G A21U C87A C93U,≤ -4.2
11,U6G A22U U33G C54U C76G G84A G141C,≤ -4.2
12,U6G A23G A26G A49C G50U,≤ -4.2
13,U6G A26G G81C G83A G100A U144G,≤ -4.2
14,U6G A28C A29C G46A C79G C85U A107C U145A,≤ -4.2
15,U6G A28G G58U C85U,≤ -4.2
16,U6G A29C A73U G86U,≤ -4.2
17,U6G A30C C43G A52C C54U U77A C85G A119G U148G,≤ -4.2
18,U6G A30U A73U G74C G86U C87A C118U,≤ -4.2
19,U6G A37G G48U G86A,≤ -4.2
20,U6G A40U A49U A66C G94U A98U U134C G140A,≤ -4.2
21,U6G A40U A66G U82A C96A G100U,≤ -4.2
22,U6G A41U U45C,-2.17
23,U6G A47C C87A,≤ -4.2
24,U6G A49C C51U G88A A107U A142G,≤ -4.2

row,Variant,polymerase ribozyme fitness (log ratio)
1,U6G A52C,-0.94
2,U6G A64C G92C U104G G152U,≤ -4.2
3,U6G A73U,-0.322
4,U6G A138U,≤ -4.2
5,U6G C10G A21G G71A C76U C85A,≤ -4.2
6,U6G C10G C87G,≤ -4.2
7,U6G C10U A29C G94C A113G C125U,≤ -4.2
8,U6G C10U C69G C85U A97C C103G,≤ -4.2
9,U6G C10U C76U C85U G124A A147G,≤ -4.2
10,U6G C14A A22G G50U U55G G92A C108U,≤ -4.2
11,U6G C14G A37U A52C C87G C118U A121C,≤ -4.2
12,U6G C18U G46C G92A G141A,≤ -4.2
13,U6G C27G C54A A66U G92A C95U C103A C114G G124U G133U G143C,≤ -4.2
14,U6G C27U A49C C79G A89U C93U C132A,≤ -4.2
15,U6G C32U G50A C51G U53A C79G U82A G84U G88A C95G C118U G136U,≤ -4.2
16,U6G C32U U44A A52U C54A A89C U90A A97U A106C U109G G133A,≤ -4.2
17,U6G C35G G59A C85A A106G G126U,≤ -4.2
18,U6G C57A C85A C95U,-0.326
19,U6G C75U,0.374
20,U6G C85A C93A G100U,≤ -4.2
21,U6G C87A,≤ -4.2
22,U6G C96U,-0.759
23,U6G C99G G141C,-2.05
24,U6G C99U U111A A115U,≤ -4.2

row,Variant,polymerase ribozyme fitness (log ratio)
1,U6G G11C C35U U61A A64G G74A A107C,≤ -4.2
2,U6G G25U G50C G92A,≤ -4.2
3,U6G G50C,-3.07
4,U6G G50U C85U C116U,0.202
5,U6G G58U U61A C96G A107C U109G,≤ -4.2
6,U6G G68A G92A,≤ -4.2
7,U6G G80C,≤ -4.2
8,U6G G80U G83A G84U C93A C95U C103G G117C,≤ -4.2
9,U6G G86U G152U,-4.12
10,U6G G92A,-2.59
11,U6G U7C A20U A39G A40C G42C G59A G92U C93G A115U C116U,≤ -4.2
12,U6G U7G A16U U82C G84U A106U A121U,≤ -4.2
13,U6G U7G C14U A52U A60U A89U U146C,≤ -4.2
14,U6G U7G C18G U31G C75U A89G G92A U109C G128C,≤ -4.2
15,U6G U7G C79U A89G C93A G126U,≤ -4.2
16,U6G U15G A16U U33G G70A G92U C108A A142C U151C,≤ -4.2
17,U6G U15G G83C A89G G94U,≤ -4.2
18,U6G U31A C43U A52G C87A C108G A115U A147U,≤ -4.2
19,U6G U31C C35U U56G G74C C85A A97U A110U A122U,≤ -4.2
20,U6G U44A A91C G94U C149G,≤ -4.2
21,U6G U53A,-0.949
22,U6G U53A C85G G100U G128U U135C G140C,≤ -4.2
23,U6G U55A G65C G70A G86U U104G G124A G141C U144C,≤ -4.2
24,U7A A12U A52C C93A C108A U135G G140A,≤ -4.2

row,Variant,polymerase ribozyme fitness (log ratio)
1,U7A A16U A20G A49C C57A G94A A107U A122G,≤ -4.2
2,U7A A19C G59U C87U A121G A137C A142C,≤ -4.2
3,U7A A20G C35A G59U C85G,≤ -4.2
4,U7A A22C A24U C54G G83A,≤ -4.2
5,U7A A23U C54U U55A G92U A98U U146G,≤ -4.2
6,U7A A24C G50U A52U C87G,≤ -4.2
7,U7A A26G C103A,≤ -4.2
8,U7A A26U C27U A41U U55G C93U,≤ -4.2
9,U7A A47C A60C C79U G83A,≤ -4.2
10,U7A A49U A52G A64U A73U U77C C85A A150C,≤ -4.2
11,U7A A64C G74A G80C A91U U139A U148A C149G,≤ -4.2
12,U7A A73G C87G C131A,≤ -4.2
13,U7A A73G C93U C129G,≤ -4.2
14,U7A A110G,≤ -4.2
15,U7A A121U A138G,≤ -4.2
16,U7A C8G A12C A40C U55G C95U G112C G141C,≤ -4.2
17,U7A C8G A12U A21G A52C U78A G141A,≤ -4.2
18,U7A C8G U13G U90G C95G U134A,≤ -4.2
19,U7A C8U A73G G81A G83A C96A A119U G124C,≤ -4.2
20,U7A C8U C38A C54A U56G C57G A66G U134A,≤ -4.2
21,U7A C10A C51U A52G A73G C87G A138G U148C,≤ -4.2
22,U7A C14G C32U A106G U148C,≤ -4.2
23,U7A C27U C76U G88A A89G C116A,≤ -4.2
24,U7A C35A C87A C93A,≤ -4.2

row,Variant,polymerase ribozyme fitness (log ratio)
1,U7A C36U U53G C54A G65C C87U,≤ -4.2
2,U7A C54U C87G,≤ -4.2
3,U7A C57G G84U A89U U104G,≤ -4.2
4,U7A C85U,-2.9
5,U7A C93G A113U A138C,≤ -4.2
6,U7A G11C A26C C87A G100C U151G,≤ -4.2
7,U7A G11C U44A G50A C95U,≤ -4.2
8,U7A G42A U45A U55A G70A C85G A97C G143U,≤ -4.2
9,U7A G48A A73C G88C A107U,≤ -4.2
10,U7A G48C U56A G68U C85A A98G C125U,≤ -4.2
11,U7A G58A C85G U90A C93A U146G,≤ -4.2
12,U7A G58C G59A C85U G133C,≤ -4.2
13,U7A G58U C85A C95A,≤ -4.2
14,U7A U9G C38A G141A U144G,≤ -4.2
15,U7A U13G C54A C103G A119G A138C,≤ -4.2
16,U7A U45A G62C A64U G86U,≤ -4.2
17,U7C A17G A23U A52C C76G C85U C93A G128U G152C,≤ -4.2
18,U7C A17U A29U C57U C93U,≤ -4.2
19,U7C A19C A24U A30G A49C C118G,≤ -4.2
20,U7C A20G G50A C75A G84A U104G A110C,≤ -4.2
21,U7C A20U A22G G50A G58C C93A A110C U134A,≤ -4.2
22,U7C A21G C76A C87A C103A U151G,≤ -4.2
23,U7C A21U C63A G65C C116G,≤ -4.2
24,U7C A23C C36G U56A,≤ -4.2

row,Variant,polymerase ribozyme fitness (log ratio)
1,U7C A23G U82G G83A U146G A150G G152C,≤ -4.2
2,U7C A29U A37U U44A G117U A121G U135C A138C,≤ -4.2
3,U7C A30U A47C A60G C105U A147U,≤ -4.2
4,U7C A41C C85U C99G C132G U139A,≤ -4.2
5,U7C A41U C51U C85A A115U A142U,≤ -4.2
6,U7C A49G G59C C79A C131U U139A U146G,≤ -4.2
7,U7C A64C C79G,≤ -4.2
8,U7C A73U C96G G152A,≤ -4.2
9,U7C C8A C32U A91U A121G U134C,≤ -4.2
10,U7C C8A U61A G81C A115G A119U U146G,≤ -4.2
11,U7C C32A U56A G58U C93U G112A A115U,≤ -4.2
12,U7C C32G U53A G94C C105U,≤ -4.2
13,U7C C35A U61A A64U A150G,≤ -4.2
14,U7C C51U C57U A97G A137U G141U,≤ -4.2
15,U7C C57G A98G,-3.3
16,U7C C69G G86A A113U G140A G141C,≤ -4.2
17,U7C C76U G84A A119U U145G,-3.32
18,U7C G11C A28U U78G A91U,≤ -4.2
19,U7C G25C A37C G86A G88A C125G,≤ -4.2
20,U7C G25C A37C U53A U61A G83U G133U U148C,≤ -4.2
21,U7C G46A G50A C95U A97G A98G U102A C131U,≤ -4.2
22,U7C G48C C85U,-3.27
23,U7C G50C C96U U134A,≤ -4.2
